Source: the supplement of paper PMC4967469

Compound: COc1ccc(C2=N[C@@H](c3ccc(Cl)cc3)[C@@H](c3ccc(Cl)cc3)N2C(=O)N2CCNC(=O)C2)c(OC(C)C)c1 [Nutlin-3a]
Assay: Viability of human cancer cell lines after 72 h of drug (GDSC screen)
Method: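 Human cancer cell lines in 384-well plates, medium with 10% serum, drug for 72 h over a 256-fold dose range (nine 2-fold or five 4-fold steps up to the top dose). Adherent lines were fixed and stained with the nucleic acid dye Syto60, suspension lines read with resazurin; signal relative to control wells, capped at 0 and 100%. One two-parameter sigmoid per drug and line, fitted in a mixed model over all curves with the slope shared within a line.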

With “MOLM-13 (acute myeloid leukaemia, suspension, top dose 8 µM)” the AUC was 0.92 and the IC50 was > 8 µM.
With “MOLM-16 (acute myeloid leukaemia, suspension, top dose 8 µM)” the AUC was 0.968 and the IC50 was > 8 µM.
In the case of “MOLP-8 (myeloma, suspension, top dose 8 µM)”, the AUC is reported as 0.947 and the IC50 is reported as > 8 µM.
With “MOLT-4 (lymphoblastic leukaemia, suspension, top dose 8 µM)” the AUC was 0.905 and the IC50 was 7.19 µM.
In the case of “MOLT-13 (T-cell lymphoblastic leukaemia, suspension, top dose 8 µM)”, the AUC is reported as 0.933 and the IC50 is reported as > 8 µM.
“MOLT-16 (T-cell lymphoblastic leukaemia, suspension, top dose 8 µM)” was tested, and the AUC was 0.729 and the IC50 was 1.9 µM.
For “MONO-MAC-6 (acute myeloid leukaemia, suspension, top dose 8 µM)”, the AUC was 0.956 and the IC50 was > 8 µM.
“MPP-89 (mesothelioma, adherent, top dose 8 µM)” was tested, and the AUC was 0.98 and the IC50 was > 8 µM.
In the case of “MRK-nu-1 (breast, suspension, top dose 8 µM)”, the AUC is reported as 0.947 and the IC50 is reported as > 8 µM.
MS751 (cervix, adherent, top dose 8 µM) was tested, and the AUC was 0.99 and the IC50 was > 8 µM.
For “MSTO-211H (mesothelioma, adherent, top dose 8 µM)”, the AUC was 0.715 and the IC50 was 1.89 µM.
Cell Line “MY-M12 (leukaemia, suspension, top dose 8 µM)” has an AUC of 0.767 and an IC50 of 3.36 µM.
In the case of “MZ1-PC (pancreas, adherent, top dose 8 µM)”, the AUC is reported as 0.953 and the IC50 is reported as > 8 µM.
Cell Line “MZ2-MEL (melanoma, adherent, top dose 8 µM)” has an AUC of 0.682 and an IC50 of 1.77 µM.
“MZ7-mel (melanoma, adherent, top dose 8 µM)” was tested, and the AUC was 0.955 and the IC50 was > 8 µM.
For “Mo-T (hairy cell leukaemia, suspension, top dose 8 µM)”, the AUC was 0.833 and the IC50 was 5.33 µM.
In the case of “NAMALWA (Burkitt lymphoma, suspension, top dose 8 µM)”, the AUC is reported as 0.984 and the IC50 is reported as > 8 µM.
For “NB1 (neuroblastoma, semi-adherent, top dose 8 µM)”, the AUC was 0.911 and the IC50 was > 8 µM.
For “NB5 (neuroblastoma, adherent, top dose 8 µM)”, the AUC was 0.848 and the IC50 was 6.05 µM.
With “NB6 (neuroblastoma, adherent, top dose 8 µM)” the AUC was 0.966 and the IC50 was > 8 µM.
In the case of “NB7 (neuroblastoma, adherent, top dose 8 µM)”, the AUC is reported as 0.986 and the IC50 is reported as > 8 µM.
In the case of “NB10 (neuroblastoma, adherent, top dose 8 µM)”, the AUC is reported as 0.872 and the IC50 is reported as 7.27 µM.
With “NB12 (neuroblastoma, adherent, top dose 8 µM)” the AUC was 0.891 and the IC50 was > 8 µM.
In the case of “NB13 (neuroblastoma, adherent, top dose 8 µM)”, the AUC is reported as 0.989 and the IC50 is reported as > 8 µM.
In the case of “NB14 (neuroblastoma, adherent, top dose 8 µM)”, the AUC is reported as 0.989 and the IC50 is reported as > 8 µM.
In the case of “NB17 (neuroblastoma, adherent, top dose 8 µM)”, the AUC is reported as 0.825 and the IC50 is reported as 5.79 µM.
With “NB69 (neuroblastoma, adherent, top dose 8 µM)” the AUC was 0.774 and the IC50 was 2.78 µM.
For “NB(TU)1-10 (neuroblastoma, adherent, top dose 8 µM)”, the AUC was 0.963 and the IC50 was > 8 µM.
For “NB-4 (acute myeloid leukaemia, suspension, top dose 8 µM)”, the AUC was 0.991 and the IC50 was > 8 µM.
With “NCC010 (kidney, adherent, top dose 8 µM)” the AUC was 0.986 and the IC50 was > 8 µM.
For “NCC021 (kidney, adherent, top dose 8 µM)”, the AUC was 0.972 and the IC50 was > 8 µM.
In the case of “NCI-H23 (lung adenocarcinoma, adherent, top dose 8 µM)”, the AUC is reported as 0.956 and the IC50 is reported as > 8 µM.
Work on “NCI-H28 (mesothelioma, adherent, top dose 8 µM)” yielded an AUC of 0.802 and an IC50 of 5.51 µM.
In the case of “NCI-H64 (small cell lung carcinoma, suspension, top dose 8 µM)”, the AUC is reported as 0.995 and the IC50 is reported as > 8 µM.
“NCI-H69 (small cell lung carcinoma, suspension, top dose 8 µM)” was tested, and the AUC was 0.986 and the IC50 was > 8 µM.
For “NCI-H82 (small cell lung carcinoma, suspension, top dose 8 µM)”, the AUC was 0.98 and the IC50 was > 8 µM.
With “NCI-H146 (small cell lung carcinoma, suspension, top dose 8 µM)” the AUC was 0.993 and the IC50 was > 8 µM.

A lower IC50 marks a more sensitive line; where the fit passes the top or lowest dose, that dose stands as a limit. AUC is the area under the same curve over the 256-fold range up to the top dose, as a fraction; it is 1 without any effect and falls as sensitivity rises.
